Assay results from article PMC4132714, “Phospho-dependent and phospho-independent interactions of the helicase UPF1 with the NMD factors SMG5–SMG7 and SMG6” (Nucleic Acids Research, 2014).
No constants are given. Whether binding was seen depends on the method and setting. For some of these results: In cells and extracts the contact can be indirect. Some binding calls cover weakened binding; strength is not graded here. For some of these results: Sequences can lack the tags named with a protein.

The chains behind the UniProt entries cited, without tags or fusion partners. Where a name states a change or a piece, a line headed by the entry shows the natural chain unless it says otherwise. Residues count along the entry.
UniProt Q86US8: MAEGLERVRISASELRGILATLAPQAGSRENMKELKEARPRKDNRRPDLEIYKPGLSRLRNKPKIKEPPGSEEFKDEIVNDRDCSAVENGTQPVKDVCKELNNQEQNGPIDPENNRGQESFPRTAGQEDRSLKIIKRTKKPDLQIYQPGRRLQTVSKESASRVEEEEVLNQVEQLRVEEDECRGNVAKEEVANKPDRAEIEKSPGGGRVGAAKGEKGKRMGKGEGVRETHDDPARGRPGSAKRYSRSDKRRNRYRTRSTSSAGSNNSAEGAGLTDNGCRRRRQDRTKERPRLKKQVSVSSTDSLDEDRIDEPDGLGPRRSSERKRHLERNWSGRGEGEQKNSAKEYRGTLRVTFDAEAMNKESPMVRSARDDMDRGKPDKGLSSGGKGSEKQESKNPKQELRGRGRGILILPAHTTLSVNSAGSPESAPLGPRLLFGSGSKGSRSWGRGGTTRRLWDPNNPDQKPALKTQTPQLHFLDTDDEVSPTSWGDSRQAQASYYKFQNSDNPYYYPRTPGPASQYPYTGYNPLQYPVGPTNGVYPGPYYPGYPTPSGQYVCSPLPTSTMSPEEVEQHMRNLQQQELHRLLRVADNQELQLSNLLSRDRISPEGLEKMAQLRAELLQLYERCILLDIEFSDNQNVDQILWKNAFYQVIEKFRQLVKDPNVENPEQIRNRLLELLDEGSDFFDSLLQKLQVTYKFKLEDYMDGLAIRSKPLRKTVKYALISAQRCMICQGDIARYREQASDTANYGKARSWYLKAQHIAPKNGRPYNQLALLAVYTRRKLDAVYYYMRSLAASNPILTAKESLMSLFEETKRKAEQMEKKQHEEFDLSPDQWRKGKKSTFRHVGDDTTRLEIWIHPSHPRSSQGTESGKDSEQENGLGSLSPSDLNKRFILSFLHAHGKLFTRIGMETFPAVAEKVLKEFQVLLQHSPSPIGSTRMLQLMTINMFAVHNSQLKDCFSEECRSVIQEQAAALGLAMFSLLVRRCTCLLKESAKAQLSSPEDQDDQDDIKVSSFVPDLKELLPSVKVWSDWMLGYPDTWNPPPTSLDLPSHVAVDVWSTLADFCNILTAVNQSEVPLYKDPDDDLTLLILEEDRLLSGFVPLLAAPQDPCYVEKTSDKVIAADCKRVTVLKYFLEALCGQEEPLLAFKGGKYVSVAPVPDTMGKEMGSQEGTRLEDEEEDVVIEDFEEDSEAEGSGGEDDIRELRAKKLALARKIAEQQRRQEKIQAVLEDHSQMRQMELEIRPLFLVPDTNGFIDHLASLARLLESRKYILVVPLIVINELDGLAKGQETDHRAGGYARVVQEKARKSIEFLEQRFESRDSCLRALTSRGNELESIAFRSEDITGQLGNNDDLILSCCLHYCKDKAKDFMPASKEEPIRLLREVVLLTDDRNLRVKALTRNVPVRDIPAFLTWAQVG
GST-SMG6 TPR (residues 580–1166): residues 580-1166 of Q86US8

T1: Flag-His-UPF1fl expressed in HEK 293T cells (human) (UniProt Q92900)
T1 sequence: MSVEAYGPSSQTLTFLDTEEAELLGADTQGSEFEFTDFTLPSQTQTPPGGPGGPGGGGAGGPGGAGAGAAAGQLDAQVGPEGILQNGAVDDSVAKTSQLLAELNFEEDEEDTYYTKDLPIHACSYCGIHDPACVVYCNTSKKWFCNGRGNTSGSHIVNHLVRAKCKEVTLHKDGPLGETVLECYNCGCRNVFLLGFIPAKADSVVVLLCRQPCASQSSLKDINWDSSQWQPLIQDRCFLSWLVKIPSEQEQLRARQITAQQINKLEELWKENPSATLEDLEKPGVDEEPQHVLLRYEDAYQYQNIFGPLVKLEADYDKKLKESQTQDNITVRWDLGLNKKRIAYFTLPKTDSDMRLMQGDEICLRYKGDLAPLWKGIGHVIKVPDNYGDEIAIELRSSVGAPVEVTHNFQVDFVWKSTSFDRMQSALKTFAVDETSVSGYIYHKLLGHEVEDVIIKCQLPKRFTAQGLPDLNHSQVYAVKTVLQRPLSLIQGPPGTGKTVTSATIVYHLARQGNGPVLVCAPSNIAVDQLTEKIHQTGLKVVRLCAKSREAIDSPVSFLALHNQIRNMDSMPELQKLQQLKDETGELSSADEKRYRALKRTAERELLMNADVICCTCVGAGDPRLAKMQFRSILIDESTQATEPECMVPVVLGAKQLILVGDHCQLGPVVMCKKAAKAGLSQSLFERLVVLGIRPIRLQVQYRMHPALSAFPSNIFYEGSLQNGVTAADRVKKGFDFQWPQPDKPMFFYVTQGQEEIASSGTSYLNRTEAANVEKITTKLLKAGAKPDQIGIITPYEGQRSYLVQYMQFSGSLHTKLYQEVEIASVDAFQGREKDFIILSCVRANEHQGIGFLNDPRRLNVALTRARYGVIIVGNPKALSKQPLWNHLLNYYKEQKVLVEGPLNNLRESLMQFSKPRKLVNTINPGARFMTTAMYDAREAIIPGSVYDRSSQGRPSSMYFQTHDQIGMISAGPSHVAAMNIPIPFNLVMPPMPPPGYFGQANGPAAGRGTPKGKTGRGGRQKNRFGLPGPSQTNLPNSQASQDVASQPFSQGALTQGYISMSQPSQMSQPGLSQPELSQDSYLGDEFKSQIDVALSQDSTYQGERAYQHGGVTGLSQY

T2: GST-UPF1CT (residues 917–1118), unphosphorylated (human) (UniProt Q92900)
T2 sequence: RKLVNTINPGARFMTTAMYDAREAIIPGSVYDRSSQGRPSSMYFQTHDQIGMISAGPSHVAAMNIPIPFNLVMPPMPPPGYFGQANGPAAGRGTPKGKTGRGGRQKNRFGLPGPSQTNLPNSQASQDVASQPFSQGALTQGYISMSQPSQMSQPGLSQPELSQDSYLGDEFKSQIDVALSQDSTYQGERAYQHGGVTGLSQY

T3: SMG5 TPR (SMG5 1–803, Δ408–632) (human) (UniProt Q9UPR3)
T3 sequence: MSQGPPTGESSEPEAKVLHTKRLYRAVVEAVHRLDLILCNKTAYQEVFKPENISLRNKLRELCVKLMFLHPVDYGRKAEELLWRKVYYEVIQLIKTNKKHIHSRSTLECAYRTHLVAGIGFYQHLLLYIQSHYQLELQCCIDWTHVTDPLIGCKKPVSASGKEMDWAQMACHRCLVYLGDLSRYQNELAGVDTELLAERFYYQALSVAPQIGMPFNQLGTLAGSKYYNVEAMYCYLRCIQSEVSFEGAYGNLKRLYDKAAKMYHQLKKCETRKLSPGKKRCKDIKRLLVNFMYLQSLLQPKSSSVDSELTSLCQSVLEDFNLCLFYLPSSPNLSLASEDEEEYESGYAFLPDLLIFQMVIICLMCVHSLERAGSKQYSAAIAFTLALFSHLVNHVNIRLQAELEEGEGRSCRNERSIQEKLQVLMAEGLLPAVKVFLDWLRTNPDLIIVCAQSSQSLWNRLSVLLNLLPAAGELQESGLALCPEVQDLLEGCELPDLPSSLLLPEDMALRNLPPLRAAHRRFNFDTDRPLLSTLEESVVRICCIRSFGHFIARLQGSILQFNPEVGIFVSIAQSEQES


Key:
[1] = target: T1, Flag-His-UPF1fl expressed in HEK 293T cells (human); experiment: co-IP; HEK 293T co-transfected with HA-SMG6 constructs and Flag-His-UPF1fl; extracts in NET-G buffer (50 mM Tris-HCl pH 8.0, 150 mM NaCl, 0.1% NP-40, 1 mM EDTA, 10% glycerol); anti-Flag M2 resin, 1 h at 4°C; anti-HA and anti-Flag blots; no RNase A
[2] = target: SMG6 TPR (residues 580–1166), untagged (human) (UniProt Q86US8); experiment: AUC; sedimentation velocity; 0.4 mg/ml in 20 mM HEPES pH 7.5, 150 mM NaCl, 5% glycerol; 280 nm, 50 000 rpm, 20°C; both purified
[3] = target: SMG6 TPR (residues 580–1166), untagged (human) (UniProt Q86US8); experiment: SEC; purified SMG5–7 TPR complex and SMG6 TPR injected separately on Superdex 200 HR 10/30; chromatograms overlaid; both purified
[4] = target: GST-SMG6 TPR (residues 580–1166) (human) (UniProt Q86US8); experiment: condition: ∼2 μg of bait with equal amounts of prey in 45 μl; pull-down; GST pull-down, one prey: ∼2 μg GST-tagged bait with equal amount of untagged prey in 20 mM HEPES pH 7.5, 125 mM NaCl, 2% glycerol, 2 mM DTT (45 μl), 45 min at room temperature; glutathione–Sepharose beads in 20 mM HEPES pH 7.5, 150 mM NaCl, 10% glycerol, 2 mM DTT, 0.1% NP-40, 1 h at 4°C; eluted with glutathione; SDS-PAGE, Coomassie; GST-UPF1 constructs pre-treated with SMG1 wt or SMG1 KD where indicated; both purified
[5] = target: T2, GST-UPF1CT (residues 917–1118), unphosphorylated (human); experiment: pull-down; GST pull-down, one prey: ∼2 μg GST-tagged bait with equal amount of untagged prey in 20 mM HEPES pH 7.5, 125 mM NaCl, 2% glycerol, 2 mM DTT (45 μl), 45 min at room temperature; glutathione–Sepharose beads in 20 mM HEPES pH 7.5, 150 mM NaCl, 10% glycerol, 2 mM DTT, 0.1% NP-40, 1 h at 4°C; eluted with glutathione; SDS-PAGE, Coomassie; GST-UPF1 constructs pre-treated with SMG1 wt or SMG1 KD where indicated; both purified
[6] = target: T3, SMG5 TPR (SMG5 1–803, Δ408–632) (human); experiment: SEC; purified SMG5–7 TPR complex and SMG6 TPR injected separately on Superdex 200 HR 10/30; chromatograms overlaid; both purified
[7] = target: T3, SMG5 TPR (SMG5 1–803, Δ408–632) (human); experiment: co-purification; His-(TEV)-SMG7 and SMG5-His co-expressed in E. coli; Ni2+ affinity, TEV cleavage, second Ni2+ affinity, anion exchange

binding [1]	binding [4]	Molecule	other results
no binding	–	HA-SMG6CT (residues 580–1419; TPR and PIN domains) (from UniProt Q86US8 580-1419) (domain or fragment)	–
no binding	–	HA-SMG6NT1 (residues 1–206; contains both EBMs) (from UniProt Q86US8 1-206) (domain or fragment)	–
binds	–	HA-SMG6NT (residues 1–580) (from UniProt Q86US8 1-580) (domain or fragment)	–
binds	–	HA-SMG6fl expressed in HEK 293T cells (from UniProt Q86US8 1-1419)	–
–	no binding	SMG7 TPR (residues 1–499) (domain or fragment, UniProt Q92540 1-499) MSLQSAQYLRQAEVLKADMTDSKLGPAEVWTSRQALQDLYQKMLVTDLEYALDKKVEQDLWNHAFKNQITTLQGQAKNRANPNRSEVQANLSLFLEAASGFYTQLLQELCTVFNVDLPCRVKSSQLGIISNKQTHTSAIVKPQSSSCSYICQHCLVHLGDIARYRNQTSQAESYYRHAAQLVPSNGQPYNQLAILASSKGDHLTTIFYYCRSIAVKFPFPAASTNLQKALSKALESRDEVKTKWGVSDFIKAFIKFHGHVYLSKSLEKLSPLREKLEEQFKRLLFQKAFNSQQLVHVTVINLFQLHHLRDFSNETEQHTYSQDEQLCWTQLLALFMSFLGILCKCPLQNESQEESYNAYPLPAVKVSMDWLRLRPRVFQEAVVDERQYIWPWLISLLNSFHPHEEDLSSISATPLPEEFELQGFLALRPSFRNLDFSKGHQGITGDKEGQQRRIRQQRLISIGKWIADNQPRLIQCENEVGKLLFITEIPELILEDPSE	binding [6]: binds; binding [7]: binds

The remaining lines, values behind:

Molecule	binding [1]	binding [4]	other results
HA-SMG6NT2 (residues 207–579; low-complexity stretch proximal to the TPR domain) (from UniProt Q86US8 207-579) (domain or fragment)	binds	–	–
SMG6 TPR (residues 580–1166), untagged (from UniProt Q86US8 580-1166) (domain or fragment)	–	no binding	binding [2]: no binding (tested: 0.4 mg/ml); binding [3]: no binding
SMG6fl (HA-Flag tagged, purified from HEK 293T cells) (from UniProt Q86US8 1-1419)	–	–	binding [5]: binds weakly
SMG5–7 TPR complex (heterodimer of SMG5 TPR and SMG7 TPR) (complex, UniProt Q9UPR3 1-803; Q92540 1-499) chain 1: MSQGPPTGESSEPEAKVLHTKRLYRAVVEAVHRLDLILCNKTAYQEVFKPENISLRNKLRELCVKLMFLHPVDYGRKAEELLWRKVYYEVIQLIKTNKKHIHSRSTLECAYRTHLVAGIGFYQHLLLYIQSHYQLELQCCIDWTHVTDPLIGCKKPVSASGKEMDWAQMACHRCLVYLGDLSRYQNELAGVDTELLAERFYYQALSVAPQIGMPFNQLGTLAGSKYYNVEAMYCYLRCIQSEVSFEGAYGNLKRLYDKAAKMYHQLKKCETRKLSPGKKRCKDIKRLLVNFMYLQSLLQPKSSSVDSELTSLCQSVLEDFNLCLFYLPSSPNLSLASEDEEEYESGYAFLPDLLIFQMVIICLMCVHSLERAGSKQYSAAIAFTLALFSHLVNHVNIRLQAELEEGEGRSCRNERSIQEKLQVLMAEGLLPAVKVFLDWLRTNPDLIIVCAQSSQSLWNRLSVLLNLLPAAGELQESGLALCPEVQDLLEGCELPDLPSSLLLPEDMALRNLPPLRAAHRRFNFDTDRPLLSTLEESVVRICCIRSFGHFIARLQGSILQFNPEVGIFVSIAQSEQES chain 2: MSLQSAQYLRQAEVLKADMTDSKLGPAEVWTSRQALQDLYQKMLVTDLEYALDKKVEQDLWNHAFKNQITTLQGQAKNRANPNRSEVQANLSLFLEAASGFYTQLLQELCTVFNVDLPCRVKSSQLGIISNKQTHTSAIVKPQSSSCSYICQHCLVHLGDIARYRNQTSQAESYYRHAAQLVPSNGQPYNQLAILASSKGDHLTTIFYYCRSIAVKFPFPAASTNLQKALSKALESRDEVKTKWGVSDFIKAFIKFHGHVYLSKSLEKLSPLREKLEEQFKRLLFQKAFNSQQLVHVTVINLFQLHHLRDFSNETEQHTYSQDEQLCWTQLLALFMSFLGILCKCPLQNESQEESYNAYPLPAVKVSMDWLRLRPRVFQEAVVDERQYIWPWLISLLNSFHPHEEDLSSISATPLPEEFELQGFLALRPSFRNLDFSKGHQGITGDKEGQQRRIRQQRLISIGKWIADNQPRLIQCENEVGKLLFITEIPELILEDPSE	–	no binding	–
